{"source": "paper PMC4336329", "about": "(PLoS ONE, 2015)", "note": "In all, about 310,000 compounds went through this assay and about 14,000 (4.5%) showed an effect of 50% or more. The effect is printed as a negative number. The list shows a part of the results.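 Note: peak tail current of the secondary pulse compared with the same well before compound.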"}
{"molecular_target": "human ether-à-go-go-related gene (hERG) potassium channel (human, UniProt Q12809)", "sequence (Q12809 whole entry, looked up)": "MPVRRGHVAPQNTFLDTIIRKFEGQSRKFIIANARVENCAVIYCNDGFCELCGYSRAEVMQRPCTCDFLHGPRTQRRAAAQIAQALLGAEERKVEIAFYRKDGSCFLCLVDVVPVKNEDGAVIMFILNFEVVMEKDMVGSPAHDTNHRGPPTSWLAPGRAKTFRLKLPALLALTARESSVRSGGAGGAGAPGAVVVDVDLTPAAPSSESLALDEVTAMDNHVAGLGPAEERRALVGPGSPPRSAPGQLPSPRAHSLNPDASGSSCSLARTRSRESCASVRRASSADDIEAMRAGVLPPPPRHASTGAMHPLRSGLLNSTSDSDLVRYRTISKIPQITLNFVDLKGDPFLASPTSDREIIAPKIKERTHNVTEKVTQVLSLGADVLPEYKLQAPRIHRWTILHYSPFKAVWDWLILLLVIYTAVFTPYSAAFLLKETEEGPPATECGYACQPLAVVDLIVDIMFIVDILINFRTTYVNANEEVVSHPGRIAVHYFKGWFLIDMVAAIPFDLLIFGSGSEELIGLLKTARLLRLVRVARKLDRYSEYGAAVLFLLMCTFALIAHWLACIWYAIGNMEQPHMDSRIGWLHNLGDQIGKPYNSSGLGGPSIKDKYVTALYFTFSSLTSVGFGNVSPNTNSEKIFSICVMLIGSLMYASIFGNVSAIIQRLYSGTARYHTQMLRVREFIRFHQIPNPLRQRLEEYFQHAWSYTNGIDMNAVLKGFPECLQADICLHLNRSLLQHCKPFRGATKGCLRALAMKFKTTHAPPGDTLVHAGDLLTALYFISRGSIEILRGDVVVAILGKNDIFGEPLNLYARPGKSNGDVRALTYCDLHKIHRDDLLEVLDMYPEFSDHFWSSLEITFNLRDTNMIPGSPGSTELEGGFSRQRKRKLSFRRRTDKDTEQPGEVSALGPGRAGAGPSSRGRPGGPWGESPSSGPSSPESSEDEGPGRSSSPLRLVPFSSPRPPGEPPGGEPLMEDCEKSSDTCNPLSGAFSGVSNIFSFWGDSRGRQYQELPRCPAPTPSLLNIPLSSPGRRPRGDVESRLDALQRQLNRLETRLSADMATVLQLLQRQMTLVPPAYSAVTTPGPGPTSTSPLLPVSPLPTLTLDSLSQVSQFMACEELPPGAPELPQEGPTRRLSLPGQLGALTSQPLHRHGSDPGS", "experiment": "primary screen, population patch clamp on CHO cells stably expressing hERG", "units": {"hERG current change (%, negative = inhibition) at 10uM": "%"}}
{"smiles": "CC1(C)CC(=O)C2=C(C1)Nc1ccccc1NC2c1cccnc1", "note": "(stereo not shown)", "hERG current change (%, negative = inhibition) at 10uM": 3.26}
{"smiles": "CCOc1cc(C(=O)OCC(=O)c2c[nH]c3ccccc23)ccc1OCC(=O)N1CCOCC1", "hERG current change (%, negative = inhibition) at 10uM": -11.6}
{"smiles": "CCN1C(=O)[C@@H]2[C@@H](c3ccc(-c4ccc(Cl)c(Cl)c4)c(OC)c3)N3CCCC[C@@]3(C(=O)OC)[C@@H]2C1=O.O=C(O)C(F)(F)F", "hERG current change (%, negative = inhibition) at 10uM": -11.4}
{"smiles": "COc1ccc(NC(=O)CSc2nnc(Cc3cccn3C)n2-c2ccc(C)cc2)cc1OC", "hERG current change (%, negative = inhibition) at 10uM": 8.89}
{"smiles": "Fc1ccccc1Cc1ccc(Cl)nn1", "hERG current change (%, negative = inhibition) at 10uM": 0.887}
{"smiles": "Cc1onc(-c2c(F)cccc2Cl)c1C(=O)c1ccc(F)cc1", "hERG current change (%, negative = inhibition) at 10uM": -2.58}
{"smiles": "COc1ccccc1C1CN=NC12CCCc1ccccc1C2=O", "note": "(stereo not shown)", "hERG current change (%, negative = inhibition) at 10uM": -6.05}
{"smiles": "CN(CCc1nc2ccc(Cl)cc2[nH]1)Cc1nc(CC2CC2)no1", "hERG current change (%, negative = inhibition) at 10uM": -50.8}
{"smiles": "CCOC(=O)C1=C(C)Nc2ncnn2C1c1ccccc1F", "note": "(stereo not shown)", "hERG current change (%, negative = inhibition) at 10uM": 2.22}
{"smiles": "Clc1cccc(-c2nc(NCC3CCCO3)c3ccccc3n2)c1", "note": "(stereo not shown)", "hERG current change (%, negative = inhibition) at 10uM": 8.35}
{"smiles": "Nc1cc(C(=O)O)ccc1Nc1ccc(F)c(F)c1", "hERG current change (%, negative = inhibition) at 10uM": 13.8}
{"smiles": "Brc1cccc(CNCc2ccncc2)c1", "hERG current change (%, negative = inhibition) at 10uM": 0.127}
{"smiles": "O=C(Cn1nc(-c2ccccc2)ccc1=O)Nc1ccc(N2CCN(C(=O)c3cccs3)CC2)cc1", "hERG current change (%, negative = inhibition) at 10uM": -18.5}
{"smiles": "Cc1ccc(S(=O)(=O)Oc2ccccc2/C=N/NC(N)=S)cc1", "hERG current change (%, negative = inhibition) at 10uM": 15.1}
{"smiles": "Cc1cc(S(=O)(=O)N2CCN=C2c2ccccc2)c(Cl)cc1Cl", "hERG current change (%, negative = inhibition) at 10uM": 14.1}
{"smiles": "CC1CCN(c2nc3c(c(=O)[nH]c(=O)n3C)n2Cc2ccccc2Cl)CC1", "hERG current change (%, negative = inhibition) at 10uM": 1.9}
{"smiles": "COc1ccc(C(=O)O)cc1Nc1cc(C)nc2ncnn12", "hERG current change (%, negative = inhibition) at 10uM": 3.79}
{"smiles": "O=C(COC(=O)c1ccccc1F)NC1CCCC1", "hERG current change (%, negative = inhibition) at 10uM": 23.7}
{"smiles": "COc1ccc(OC)c(NC(=O)CSc2nn3c(=O)c(C)nnc3s2)c1", "hERG current change (%, negative = inhibition) at 10uM": 18.3}
{"smiles": "Cc1c(C)n(C)c2ccc(C(=O)NCCCN3CCN(c4ccccc4F)CC3)cc12", "hERG current change (%, negative = inhibition) at 10uM": -54.2}
{"smiles": "COC(=O)c1ccccc1N1CCS(=O)(=O)CC1", "hERG current change (%, negative = inhibition) at 10uM": 18.3}
{"smiles": "CCCn1c(CCC(=O)O)ccc1-c1cccs1", "hERG current change (%, negative = inhibition) at 10uM": 3.57}
{"smiles": "COc1ccc(Oc2cccc(Cl)c2CNC(=O)CSCC(=O)O)cc1", "hERG current change (%, negative = inhibition) at 10uM": 8.59}
{"smiles": "CC(=O)[C@H]1[C@@H]2C(=O)N(c3cccc(Cl)c3)C(=O)[C@@H]2[C@H]2c3ccccc3C=CN21", "hERG current change (%, negative = inhibition) at 10uM": 13.9}
{"smiles": "CCCCN(C(=O)c1ccc(C#N)cc1)c1c(N)n(CCC)c(=O)[nH]c1=O", "hERG current change (%, negative = inhibition) at 10uM": 16.9}
{"smiles": "CCc1ccc(-c2nc(CN3CCC(C(=O)NCCc4ccc(OC)c(OC)c4)CC3)c(C)o2)cc1", "hERG current change (%, negative = inhibition) at 10uM": -76.2}
{"smiles": "COc1cc2ncnc(NCc3cccc(F)c3F)c2cc1OC", "hERG current change (%, negative = inhibition) at 10uM": -7.4}
{"smiles": "CCC(=O)N1N=C(c2ccc(C)o2)CC1c1ccc(Br)cc1", "note": "(stereo not shown)", "hERG current change (%, negative = inhibition) at 10uM": -23.4}
{"smiles": "O=C(OCc1nc2ccc(Cl)cc2n1CCO)c1ccc(O)cc1", "hERG current change (%, negative = inhibition) at 10uM": -34.5}
{"smiles": "CC(=O)N1CCCc2cc(S(=O)(=O)N3CCCC(C(=O)NCc4ccccc4)C3)ccc21", "note": "(stereo not shown)", "hERG current change (%, negative = inhibition) at 10uM": 2.98}
{"smiles": "Cc1cc(C)c(S(=O)(=O)N2CCCC2=O)c(C)c1N(C)S(C)(=O)=O", "hERG current change (%, negative = inhibition) at 10uM": 4.44}
{"smiles": "COc1ccc(C2=CC(=O)OC3(CCCC3)O2)cc1", "hERG current change (%, negative = inhibition) at 10uM": -15.6}
{"smiles": "COc1cc(/C=C(\\NC(=O)c2ccccc2)C(=O)Nc2nccs2)ccc1OC(C)=O", "hERG current change (%, negative = inhibition) at 10uM": 16.2}
{"smiles": "Cc1cc(C)c2ccc(C(=O)O)nc2c1O", "hERG current change (%, negative = inhibition) at 10uM": -1.62}
{"smiles": "CC(C)N1CCN(Cc2ccc(Sc3nncn3C)o2)CC1CCO", "note": "(stereo not shown)", "hERG current change (%, negative = inhibition) at 10uM": 22.9}
{"smiles": "COc1ccc(Nc2ccc(N3C(=O)CC(C)C3=O)cc2[N+](=O)[O-])cn1", "note": "(stereo not shown)", "hERG current change (%, negative = inhibition) at 10uM": 11.5}
{"smiles": "S=c1[nH]nc(-c2cccnc2)n1/N=C/c1cccs1", "hERG current change (%, negative = inhibition) at 10uM": 11.7}
{"smiles": "Cc1cccc(OCCn2cc(/C=N/NC(=O)c3ccncc3)c3ccccc32)c1", "hERG current change (%, negative = inhibition) at 10uM": -4.79}
{"smiles": "Cc1[nH]c2ccccc2c1SCCNC(=O)c1ccc(S(=O)(=O)N2CCCC2)cc1", "hERG current change (%, negative = inhibition) at 10uM": -8.04}
{"smiles": "CCN(CC)P(=O)(Nc1ccccc1Br)c1ccc(N(C)C)cc1NC(=O)c1ccco1", "note": "(stereo not shown)", "hERG current change (%, negative = inhibition) at 10uM": -6.45}
{"smiles": "Cc1cc(NC(=O)c2cccs2)cc(-c2nc3ncccc3o2)c1O", "hERG current change (%, negative = inhibition) at 10uM": 5.27}
{"smiles": "Br.CCCCCN1C2=NCCN2c2ccccc21", "hERG current change (%, negative = inhibition) at 10uM": -71.4}
{"smiles": "COC(=O)c1cc(-c2ccccc2)n(CCN)c1C.Cl", "hERG current change (%, negative = inhibition) at 10uM": -3.56}
